In the RNAGym collection of RNA variant scans (doi:10.1093/nar/gkz1192) one finds self-cleavage data, which are given here for 83 variants.

To fix the notation:
B1: CPEB3 Ribozyme (parent)
chain: UAACAGGGGGCCACAGCAGAAGCGUUCACGUCGCAGCCCCUGUCAGAUUCUGGUGAAUCUGCGAAUUCUGCUGUAUAUCUC

The source gives no read counts; variants with many changes may rest on few reads.

In the data set the parent is B1. Put plainly: self-cleavage, relative activity (ratio to wild type); higher = more cleavage; in vitro, sequencing. The method, boiled down:
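Barcoded CPEB3 ribozyme mutants, produced by rounds of error-prone PCR, self-cleaved while being transcribed with T7 RNA polymerase for 5 hours at 37°C and during a subsequent 15 min DNase I step before EDTA was added. Sequencing of template-switched cDNA on Illumina gave cleaved and total reads, and DNA sequencing assigned barcodes to variants. Each variant's relative activity is its cleaved/total read fraction divided by the unmutated ribozyme's fraction, averaged across three batches. A variant needed a minimum of 5 reads.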
Take A20G A28G U31C U51C: the self-cleavage was 0.3.

With A20G U31A U48A U51C U60C, the self-cleavage came out at 0.13.

Turning to A20G A64U A75G, the self-cleavage is 0.12.

Take A20G C39U A45G: the self-cleavage amounted to 0.28.

On to A20G U25A A28U U43C, for which the self-cleavage turned out to be 0.4.

With A20G U58A A65U U67C U69A U78C, the self-cleavage is 0.09.

As to A20G A28U U31C U41A A64G, the self-cleavage came to 0.33.

For A20G U41C A45G G52A U58C U72C, the self-cleavage was 0.3.

For A20G U43C A77G, the self-cleavage came to 0.47.

Take A20G U26C A56G U69C C81U: the self-cleavage turned out to be 0.21.

Consider A20G A28G A35G C40A A45U U78C, for which the self-cleavage came to 0.2.

Regarding A20U G33C U41C, the self-cleavage was 0.19.

Regarding A20G A47G U48A A65G A75G, the self-cleavage turned out to be 0.08.

Regarding A20G C23G U26C G42A, the self-cleavage worked out at 0.08.

With A20G U54C A65G U72A, the self-cleavage is 0.36.

Regarding A20U U25C U26A U54A U72G U80C, the self-cleavage came to 0.24.

With A20U U25C G33A G53U A56U, the self-cleavage was determined as 0.05.

Turning to A20G U25A U31A U43C A77G U78A C79U, the self-cleavage worked out at 0.23.

A20G A28U A45G A64G: the self-cleavage worked out at 0.23.

As for A20U A45U U74A, the self-cleavage was determined as 0.13.

As for A20G U31A U41A A47G U67C, the self-cleavage was 0.18.

For the variant A20G U51G U67C U76C, the self-cleavage came out at 1.19.

With A20G U26C G30A U58C, the self-cleavage was found to be 0.07.

On to A20G U67A U76C, for which the self-cleavage is 0.84.

As for A20G U25G U26A U58C G61A A65G U67C, the self-cleavage stood at 0.03.

As to A20U C40U U41A A47G, the self-cleavage is 0.19.

For the variant A20U C23U U54C A64G, the self-cleavage is 0.35.

A20G G42A U43C A57G U78A: the self-cleavage is 0.4.

With A20G U31A A47U, the self-cleavage is 0.37.

As to A20U U41C U60A, the self-cleavage worked out at 0.16.

As for A20G A21G U66C U67C, the self-cleavage turned out to be 0.3.

A20G U26C U51A G55A: the self-cleavage stood at 0.09.

Turning to A20U C32A U72C, the self-cleavage came to 0.2.

Regarding A20G U26C U80C, the self-cleavage amounted to 0.43.

For the variant A20G A21G U41A, the self-cleavage came to 0.07.

As to A20G U58A U72G, the self-cleavage was 0.27.

For A20G U54A U78C, the self-cleavage was found to be 0.62.

Take A20G U43C U54C U58A U78C: the self-cleavage came to 0.21.

Regarding A20G G61A U78C, the self-cleavage came to 0.32.

As for A20G C29U C39A U49C G53C U74A, the self-cleavage is 0.04.

As to A20G C27A A28G U41A G73A, the self-cleavage was determined as 0.5.

For the variant A20U U49C A77C, the self-cleavage was found to be 0.07.

A20G C40A U58C: the self-cleavage came out at 0.32.

As to A20G U60A U76C A77U, the self-cleavage was 0.39.

With A20G U25C U31C G33C U49A, the self-cleavage amounted to 0.07.

As to A20G U80C C81A, the self-cleavage amounted to 1.03.

With A20U G55A G63A, the self-cleavage is 0.23.

Regarding A20U C38U U60C A64G A65C A75U, the self-cleavage came out at 0.06.

In the case of A20G U26C A45G U72A, the self-cleavage came out at 0.14.

In the case of A20G C39G U78C, the self-cleavage is 0.61.

With A20G U26A G33A U48A U72C, the self-cleavage was 0.06.

As for A20G U69C U76C, the self-cleavage turned out to be 0.65.

Consider A20G U25C U26C A45U G63A, for which the self-cleavage was 0.

Consider A20U U26C U48C A57G A64U U80C, for which the self-cleavage came out at 0.12.

On to A20G A21G U54C, for which the self-cleavage amounted to 0.41.

As for A20G G33A U72C U80C, the self-cleavage worked out at 0.06.

With A20G U25C A35U A77G, the self-cleavage amounted to 0.13.

Consider A20G C23U U41C, for which the self-cleavage is 0.25.

As to A20U A47U G63A U80C, the self-cleavage came out at 0.19.

As to A20G G36U U74C, the self-cleavage turned out to be 0.12.

Consider A20G A35G A64G U80C, for which the self-cleavage amounted to 1.14.

Take A20G A45G A64G: the self-cleavage was determined as 0.45.

With A20G U72A U80A, the self-cleavage came to 0.43.

As for A20G U67C U69G U76C, the self-cleavage came to 0.75.

On to A20U U41A A56G U72C, for which the self-cleavage is 0.27.

Take A20G C32A U51A: the self-cleavage is 0.25.

For the variant A20U U25C U31C A45U C79U U80C, the self-cleavage stood at 0.07.

For the variant A20G C44A U51A U80C, the self-cleavage was found to be 0.19.

As for A20U U31G U43A, the self-cleavage was 0.3.

Take A20U U49C G63A: the self-cleavage was 0.16.

In the case of A20U U41A U54C C59A, the self-cleavage is 0.14.

In the case of A20G U43C A64U, the self-cleavage was 0.2.

Regarding A20G U41A U43A U58C, the self-cleavage came to 0.11.

Consider A20G G61A G63C A64G, for which the self-cleavage came out at 0.29.

For A20G A28G U41C U72C, the self-cleavage is 0.39.

On to A20U A45C U49C U69A, for which the self-cleavage amounted to 0.05.

As to A20G G22C C39U U69A, the self-cleavage amounted to 0.06.

Regarding A20G A28U U80A, the self-cleavage was found to be 0.84.

With A20G U26G U51A U58A, the self-cleavage came out at 0.19.

For the variant A20U A35U A57G C79A, the self-cleavage came out at 0.12.

Regarding A20G G24A U80A, the self-cleavage amounted to 0.29.

For the variant A20U A35G C39U U76C, the self-cleavage turned out to be 1.07.

Turning to A20U U31A G61A, the self-cleavage amounted to 0.11.
